Measured values reported in PubChem BioAssay AID686978 (National Center for Advancing Translational Sciences (NCATS), 2013).
Among all 420,000 compounds or so, about 64,000 (15%) were called active. The inconclusive results got no clear call from the source; some entries with a clear call stand among them for comparison. Calls come from the whole dose curve; as a rule, active = well fitted inhibition curve with a large enough effect; inconclusive = small, poorly fitted or top-dose-only effect; inactive = flat fitted curve, though single readings scatter. No potency is given beside an inconclusive call; the fits are too rough.

Experiment: qHTS for Inhibitors of human tyrosyl-DNA phosphodiesterase 1 (TDP1): qHTS in cells in absence of CPT; note: nearly all actives have a fitted effect of over 55% in size
Settings: DT40 Tdp1-/- hTDP1 cells, no CPT, ATP luminescence, 48 h; activity change, negative = growth inhibition: at 46.2 µM (top of the series) unless noted
How it was run: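 Growth of hTDP1-complemented DT40 Tdp1-knockout cells is measured by ATP luminescence after at least 48 hr compound exposure at 37 °C, with DMSO substituting for the 20 nM CPT used in the parallel screen.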
% is set by controls: 0 for no effect and ±100 for the full control effect; potency is the fitted concentration of half-maximal effect; tags give direction and shape of the fitted curve.

Row | Structure (SMILES) | Potency | activity change, negative = growth inhibition
1 | c1ccc(-n2cnc3cc(NCc4cccs4)ccc32)cc1 | inconclusive [inhibitor, single point] | –
2 | COc1ccc(-n2c(=O)c(-c3cccc(C#N)c3)nc3cnc(N4CCNCC4)nc32)cc1 | inactive | –
3 | Cc1cccc(C)c1N1C(=O)c2ccccc2NC(=O)C1C(=O)NCCc1ccccc1F (stereo unspecified) | inconclusive [inhibitor, single point] | –
4 | CCc1ccc(C(C)NC(=O)Cc2ccc(F)cc2)cc1 (stereo unspecified) | inconclusive [inhibitor, single point] | –
5 | CCn1c(/C=C\c2ccccc2C)nc2ccccc2c1=O | active: 13 µM | –
6 | Cc1nn(C)c(Oc2ccc(Cl)cc2)c1C(=O)Nc1ccc(F)cc1F | active: 7.31 µM | –
7 | CCOc1ccc(C(=O)NCCc2sc(-c3ccc(C)cc3)nc2C)cc1 | inconclusive [inhibitor, single point] | –
8 | CN(C)c1cc[n+](CC(=O)N2CCCc3ccccc32)cc1 | inconclusive [inhibitor, single point] | –
9 | O=C(Nc1nc2c(s1)CCc1ccccc1-2)c1ccco1 | inconclusive [inhibitor, partial curve] | –
10 | O=C(Nc1ccc(F)c(Cl)c1)c1cc(C2CCCN(S(=O)(=O)c3cccs3)C2)on1 (stereo unspecified) | inconclusive [inhibitor, single point] | –
11 | Brc1ccccc1/C=N/Nc1ccccn1 | inconclusive [inhibitor, single point] | –
12 | Cn1cnnc1Sc1ccc(CN2CCOc3ccc(C4=CCCCC4)cc3C2)o1 | inconclusive [inhibitor, single point] | –
13 | CC(C)CCN1C(=O)CCC1(C)C(=O)NC1CCCCCCC1 (stereo unspecified) | inactive | –
14 | CC(C)Sc1nc2ccccc2n2cnnc12 | inconclusive [inhibitor, single point] | –
15 | CCOc1ccccc1NC(=O)CSc1c(C)cnc2c1c(=O)n(C)c(=O)n2C | inconclusive [inhibitor, single point] | –
16 | COc1cc(Nc2nc(SCc3ccccc3F)nc3ccccc23)cc(OC)c1 | active: 18.4 µM | –
17 | CC(=O)c1cccc(OC(=O)c2cc(S(=O)(=O)N3CCOCC3)ccc2N2CCCC2)c1 | inconclusive [inhibitor, single point] | –
18 | OCC(CO)(CO)N=Cc1c(O)ccc2ccccc12 | inconclusive [inhibitor, single point] | –
19 | Cc1ccc(S(=O)(=O)c2cc3ccccc3nc2N)cc1 | inactive | –
20 | Cc1cccc(-n2nnc(C(=O)NCc3ccccc3Cl)c2N)c1 | inconclusive [inhibitor, single point] | –
21 | CCc1ccc(C(O)c2ncc(-c3cccc(OC)c3)[nH]2)cc1 (stereo unspecified) | active: 9.2 µM | –
22 | Nc1sccc1C(=O)c1ccc(Cl)cc1 | inconclusive [inhibitor, single point] | –
23 | CC(C)NC(=O)C1(C)CN(S(C)(=O)=O)CC(=O)N1CCCn1ccnc1 (stereo unspecified) | inactive | –
24 | Cc1ccc(SCC(=O)Nc2ccc(-c3nnc(-c4ccco4)o3)cc2)cc1 | inconclusive [inhibitor, single point] | –

Row | Structure (SMILES) | Potency | activity change, negative = growth inhibition
25 | CCOc1ccc(CCNC(=O)COC(=O)COc2ccc(Br)cc2)cc1OCC | inactive | –
26 | CN(C1=NS(=O)(=O)N=C(N(C)c2ccccc2)O1)c1ccccc1 | inconclusive [inhibitor, single point] | –
27 | Cc1ccc(C(c2nnnn2C2CCCC2)N2CCc3ccccc32)cc1 (stereo unspecified) | inconclusive [inhibitor, single point] | –
28 | CCOc1ccccc1NC(=O)c1cccc2ccccc12 | inconclusive [inhibitor, single point] | –
29 | COc1ccc(CNC(=O)c2ccc[nH]2)cc1Cl | inactive | –
30 | COc1nonc1NC(=O)CSc1nc2ccccc2[nH]1 | inconclusive [inhibitor, single point] | –
31 | CC1CCCCC1NC(=O)C1CCC(CNS(=O)(=O)c2cccc3cccnc23)CC1 (stereo unspecified) | inconclusive [inhibitor, single point] | –
32 | Cc1ncc(COCc2ccccc2)c(CO)c1OCc1ccccc1 | inconclusive [inhibitor, single point] | –
33 | C/C(CC(=O)Nc1ccc(OCc2ccccc2)cc1)=N\NC(=O)C(=O)Nc1ccc(C)c(Cl)c1 | active: 18.4 µM | –
34 | O=C(Nc1ccc(Cl)c(C(F)(F)F)c1)[C@@H]1CC=C[C@@H]2CCN(C3CC3)C(=O)[C@@H]21 | inconclusive [inhibitor, single point] | –
35 | COCCNC(=O)C1CCCN(C(=O)C2(c3ccc(Cl)cc3)CCCC2)CC1 (stereo unspecified) | inconclusive [inhibitor, single point] | –
36 | Cc1ccc(C(=O)N/C(=C/c2ccc(-c3cccc([N+](=O)[O-])c3)o2)C(=O)NC(C)(C)C)cc1 | active: 13 µM | –
37 | COc1ccc([C@H]2CC(=O)C[C@@H](CCn3cc(-c4ccncc4)nn3)O2)cc1 | inconclusive [inhibitor, single point] | –
38 | O=C(CCC1CCCC1)NNC(=O)c1ccccc1O | inconclusive [inhibitor, single point] | –
39 | COc1ccc(CCNC(=O)c2cnc3sc(N4CCCCCC4)nn3c2=O)cc1OC | active: 8.2 µM | –
40 | CCCCOC(=O)C(=O)Nc1cccc(-c2nn[nH]n2)c1 | inactive | –
41 | Cn1c2c(c(=O)c3ccccc31)C[C@@H](O)C(C)(C)O2 | – | inactive: -10.1% [at 9.04 µM]
42 | O=c1[nH]cnc2sc3c(c12)CCN(Cc1ccccc1)C3 | inconclusive [inhibitor, single point] | –
43 | O=C(NCCCCc1ccccc1)c1cccc([N+](=O)[O-])c1 | active: 16.4 µM | –
44 | CC(C)(C)c1ccc(C(=O)N2CCC(C(=O)NC3CCCCCC3)CC2)cc1 | active: 20.6 µM | –
45 | CCOCCCNC(=O)C(c1ccc(OC)cc1)N(Cc1cccs1)C(=O)c1ccccc1O (stereo unspecified) | inconclusive [inhibitor, single point] | –
46 | O=C(NCc1ccccc1C(F)(F)F)c1cccc2c1C(=O)c1ccc(N3CCCCC3)cc1S2(=O)=O | inconclusive [inhibitor, full curve] | –
47 | CCCCCSc1nc2c(c(=O)[nH]c(=O)n2C)n1CC | inactive | –
48 | COc1ccc(CCNC(=O)CN2C(=O)CCSc3ccccc32)c(OC)c1 | inactive | –

Row | Structure (SMILES) | Potency | activity change, negative = growth inhibition
49 | CN(C)S(=O)(=O)N(CC(=O)Nc1ccc(F)c(F)c1)c1ccccc1 | inactive | –
50 | CCN(CC)C(=O)c1cc(Cl)ccc1NC(=O)c1ccco1 | inactive | –
51 | CCOc1cc(N2CCOCC2)c(OCC)cc1NC(=O)COc1ccccc1[N+](=O)[O-] | inconclusive [inhibitor, single point] | –
52 | CC1=C(C(=O)Nc2cccc(C)c2C)C2(CCCCC2)OC1=O | inactive | –
53 | CCN(CC)c1ccc(NC(=O)COc2ccccc2C)cc1S(=O)(=O)Nc1ccccc1OC | active: 14.6 µM | –
54 | COc1cccc(NC(=O)N2CCCC2)c1 | inactive | –
55 | CC(C)NC(=O)CSc1nc2ccccc2nc1N1CCCCC1 | inconclusive [inhibitor, single point] | –
56 | O=C(C1CCC(CNc2c(N3CCCC3)c(=O)c2=O)CC1)N1CCc2ccccc21 (stereo unspecified) | inconclusive [inhibitor, single point] | –
57 | CCCc1nc2ccccc2c(=O)n1N | inactive | –
58 | Cc1ccc(NC2=NCC(Cc3ccc(Br)cc3)S2)cc1 (stereo unspecified) | inconclusive [inhibitor, single point] | –
59 | Fc1ccc(C(c2nnnn2C2CCCC2)N2CCN(Cc3ccncc3)CC2)cc1 (stereo unspecified) | inconclusive [inhibitor, single point] | –
60 | C[C@@H]1CN([C@@H](C)CO)S(=O)(=O)c2ccc(C#Cc3cccc(F)c3)cc2O[C@@H]1CN(C)CC1CC1 | inconclusive [inhibitor, single point] | –
61 | CC(C)(C)NC(=O)CON=C1c2ccccc2-c2ccccc21 | active: 23.1 µM | –
62 | O=C(c1ccccc1F)N1CCCc2ccccc21 | inconclusive [inhibitor, single point] | –
63 | CCN(CC)c1ncnc2c1ncn2[C@H]1CN(Cc2ccccc2)C[C@@H](CO)O1 | inconclusive [inhibitor, single point] | –
64 | CC(C)CCN1C(=O)N(c2ccccc2)C(=O)C1CC(=O)Nc1ccc(Cl)cc1 (stereo unspecified) | inconclusive [inhibitor, single point] | –
65 | CC(/C=N/Nc1nnc2c(n1)[nH]c1ccccc12)=C\c1ccco1 | inconclusive [inhibitor, partial curve] | –
66 | COC(=O)c1ccccc1NC(=O)c1ccc(COc2ccccc2)o1 | inconclusive [inhibitor, single point] | –
67 | Cc1cc2n(n1)SC(Nc1cccc3ccccc13)N2 (stereo unspecified) | inconclusive [inhibitor, partial curve] | –
68 | CCn1cc(C(=O)O)c(=O)c2cc(F)c(N3CCN(C(=S)NC(=O)c4ccc(OC)cc4)CC3)cc21 | inconclusive [inhibitor, single point] | –
69 | Cc1cc(O)cc(C)c1NS(=O)(=O)c1ccc2ccccc2c1 | active: 25.9 µM | –
70 | Cc1oc2c(C)c(O)ccc2c(=O)c1-c1cnn(-c2ccccc2)c1 | inconclusive [inhibitor, single point] | –
71 | CCOc1ccc(NC(=O)N2CC=C(n3c(=O)[nH]c4ccccc43)CC2)cc1 | inconclusive [inhibitor, single point] | –
